# Source: PubChem BioAssay AID504339 (National Center for Advancing Translational Sciences (NCATS), 2011)
# Screen size: about 390,000 compounds; about 17,000 (4.4%) were called active. The inconclusive results got no clear call from the source; some entries with a clear call stand among them for comparison. Calls come from the whole dose curve; as a rule, active = well fitted inhibition curve with a large enough effect; inconclusive = small, poorly fitted or top-dose-only effect; inactive = no such curve, though single readings can be large or run the other way. Potencies beside an inconclusive call are fits to weak or partial responses and may not hold up.
# Target: Lysine-specific demethylase 4A (Homo sapiens) (UniProt O75164)
# Chain of UniProt O75164 (O75164 whole entry, looked up, the tested form may be a part): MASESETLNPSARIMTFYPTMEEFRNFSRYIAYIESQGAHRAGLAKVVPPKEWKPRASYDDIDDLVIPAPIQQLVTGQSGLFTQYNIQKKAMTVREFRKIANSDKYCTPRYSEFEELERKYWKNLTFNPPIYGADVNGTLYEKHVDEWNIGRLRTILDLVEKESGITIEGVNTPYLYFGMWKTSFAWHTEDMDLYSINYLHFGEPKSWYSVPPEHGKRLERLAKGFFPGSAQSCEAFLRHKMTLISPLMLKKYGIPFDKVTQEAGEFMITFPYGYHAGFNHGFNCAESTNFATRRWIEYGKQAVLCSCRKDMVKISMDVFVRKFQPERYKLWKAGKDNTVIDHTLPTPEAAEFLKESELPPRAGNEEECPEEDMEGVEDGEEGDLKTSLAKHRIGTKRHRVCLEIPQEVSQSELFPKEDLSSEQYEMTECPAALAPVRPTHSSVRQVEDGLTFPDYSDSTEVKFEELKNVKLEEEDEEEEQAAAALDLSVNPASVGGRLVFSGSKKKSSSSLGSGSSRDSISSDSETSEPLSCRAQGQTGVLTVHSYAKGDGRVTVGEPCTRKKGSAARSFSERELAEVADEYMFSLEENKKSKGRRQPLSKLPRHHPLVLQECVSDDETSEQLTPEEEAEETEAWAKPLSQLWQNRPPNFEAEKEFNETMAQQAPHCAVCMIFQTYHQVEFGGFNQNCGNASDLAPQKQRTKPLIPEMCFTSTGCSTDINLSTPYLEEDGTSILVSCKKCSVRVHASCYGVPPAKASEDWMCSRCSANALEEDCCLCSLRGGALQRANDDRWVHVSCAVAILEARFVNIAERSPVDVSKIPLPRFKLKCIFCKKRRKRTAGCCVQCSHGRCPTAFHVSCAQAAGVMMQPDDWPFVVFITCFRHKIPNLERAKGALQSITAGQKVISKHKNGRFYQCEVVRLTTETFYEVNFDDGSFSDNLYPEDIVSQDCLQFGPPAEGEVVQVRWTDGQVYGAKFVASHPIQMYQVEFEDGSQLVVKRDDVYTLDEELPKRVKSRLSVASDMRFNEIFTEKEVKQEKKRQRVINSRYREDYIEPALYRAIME
# Assay: qHTS Assay for Inhibitors of JMJD2A-Tudor Domain; note: nearly all actives have a fitted effect of over 50% in size
# Settings: AlphaScreen JMJD2A-Tudor / H3K4me3 peptide binding; series mostly up to 114 µM
# Potency is the fitted concentration of half-maximal effect; tags give direction and shape of the fitted curve.
row,Compound,Potency
1,COC(=O)c1ccc(CNC(=O)C2CCC(=O)N(CCCc3ccccc3)C2)cc1 (configuration not stated),"inconclusive: 14.1 µM [inhibitor, partial curve, poor fit]"
2,CCN(CC)CCN1C(=O)/C(=C\c2ccc(Cl)c([N+](=O)[O-])c2)SC1=Nc1ccc(OC)cc1,active: 17.8 µM
3,O=C(COC(=O)Cc1ccccc1F)Nc1ccc(Cl)cn1,active: 20 µM
4,CCOC(=O)c1c(C)n(C)c2ccc(OC)c(NC(=O)CCN3CCC(Cc4ccccc4)CC3)c12,inactive
5,CCN(CC(=O)NCc1ccc(F)cc1)C(=O)/C=C/c1cccs1,inactive
6,COc1ccc(C(=O)NCN2CCN(c3ccccc3)CC2)cc1OC,inactive
7,COc1cccc(OC)c1OCCCCN1CCC(Cc2ccccc2)CC1,active: 3.16 µM
8,Cc1ccc(Cl)cc1N1CCN(S(=O)(=O)c2ccc3[nH]c4c(c3c2)CCCCC4)CC1,"inconclusive: 44.7 µM [inhibitor, partial curve]"
9,CN(C)CCN(Cc1ccccc1)S(=O)(=O)c1ccc(-c2ccc(=O)[nH]n2)s1,inactive
10,COCCn1c(-c2ccccc2F)n[nH]c1=S,active: 35.5 µM
11,COc1ccccc1NCCC(=O)OCC(=O)NCc1ccco1,"inconclusive: 44.7 µM [inhibitor, partial curve]"
12,CCc1ccc(N(CC(=O)NC2CCCCC2)C(=O)CNC(=O)c2ccco2)cc1,"inconclusive: 79.4 µM [inhibitor, single point]"
13,CC(=O)NC1=C(Nc2ccc(N(C)C)cc2)C(=O)c2ccccc2C1=O,"inconclusive: 56.2 µM [inhibitor, partial curve, poor fit]"
14,COc1ccc(NCC(O)COc2ccc(C(C)(C)C)cc2)cc1 (configuration not stated),"inconclusive: 15.8 µM [inhibitor, partial curve]"
15,Cc1cccc(-n2c(C)cc(C(=S)N3CCOCC3)c2C)c1C,"inconclusive: 63.1 µM [inhibitor, partial curve]"
16,Cc1nn2c(c1-c1ccccc1)N=C(c1ccco1)CC2c1ccccc1 (configuration not stated),"inconclusive: 22.4 µM [inhibitor, full curve]"
17,Nc1ccccc1C(=O)/C=C/c1ccc2c(c1)OCO2,active: 44.7 µM
18,CC(C)n1cnc2cc(NCc3ccccc3O)ccc21,inactive
19,CCOC(=O)C1=C(C)N=C2SC(C(=O)OC)=CC(=O)N2C1c1cccc(OC)c1 (configuration not stated),"inconclusive: 56.2 µM [inhibitor, partial curve]"
20,CN(C)c1ccc(/C=C/c2ccc3ccccc3[n+]2C)cc1,active: 79.4 µM
21,Cc1cccc(C(=O)N=c2c(C#N)cc3c(=O)n4cccc(C)c4nc3n2Cc2ccco2)c1,"inconclusive: 89.1 µM [inhibitor, partial curve]"
22,C=CCc1ccc(OCCCCNC(C)CC)c(OC)c1 (configuration not stated),active: 14.1 µM
23,Oc1cccc2cc3cccc(O)c3c(O)c12,"inconclusive: 89.1 µM [inhibitor, single point]"
24,Cc1ccc(NC(=O)c2ncn(CCCN(CCCn3cnc(C(=O)Nc4ccc(C)c(C)c4)n3)Cc3ccc4[nH]ccc4c3)n2)cc1C,"inconclusive: 50.1 µM [inhibitor, partial curve]"

row,Compound,Potency
1,C=CCc1ccccc1OCCCCN1CCCC1,active: 10 µM
2,O=C(COC(=O)C1CCC1)NCc1ccc(F)cc1,inactive
3,CC(C)OP(=O)(OC(C)C)C(O)c1ccc(N(C)C)cc1 (configuration not stated),"inconclusive: 89.1 µM [inhibitor, single point]"
4,COc1ccc2[nH]c(C)c(CCNc3ccc(C(F)(F)F)cc3[N+](=O)[O-])c2c1,active: 22.4 µM
5,Cc1ccc2c(c1)-c1nc(-c3ccc(Cl)cc3)cc(-c3coc4ccccc4c3=O)c1CO2,inactive
6,C[C@@H]1[C@H](O)C[C@@]23COC(=O)C2=CCC[C@@H]3[C@@]1(C)CC/C(=C/CO)CO,"inconclusive: 3.98 µM [inhibitor, single point]"
7,O=[N+]([O-])c1cc(S(=O)(=O)Nc2cccc(C(F)(F)F)c2)ccc1-n1nnc2ccccc21,"inconclusive: 50.1 µM [inhibitor, partial curve]"
8,O=C(CSc1ncnc2sc3c(c12)CCC3)N1CCOCC1,"inconclusive: 50.1 µM [inhibitor, partial curve]"
9,O=C(COC(=O)c1cc(-c2cccc3ccccc23)nc2ccccc12)NC1CCS(=O)(=O)C1 (configuration not stated),"inconclusive: 28.2 µM [inhibitor, single point]"
10,CCc1cc2ccc(OC)cc2nc1SCC(=O)NNC(=O)c1ccco1,inactive
11,Cc1c(Cl)cnc(NC(=O)COC(=O)[C@@H](NC(=O)c2ccco2)C(C)C)c1Cl,"inconclusive: 39.8 µM [inhibitor, partial curve, poor fit]"
12,COc1ccccc1CNC(=O)CCNC(=O)Cn1cnc2ccccc2c1=O,inactive
13,N#C/C(=C\c1ccc(Cl)cc1Cl)c1n[nH]c(Cn2cncn2)n1,inactive
14,Cc1nc2ccn(Cc3cccs3)c(=O)c2cc1C(=O)N1CCN(c2ccc(F)cc2)CC1,"inconclusive: 56.2 µM [inhibitor, partial curve, poor fit]"
15,CCN(C(=O)COC(=O)c1n[nH]c2ccccc12)c1ccccc1,inactive
16,CCC(Oc1ccc(C)c(C)c1)C(=O)O (configuration not stated),"inconclusive: 89.1 µM [inhibitor, partial curve]"
17,COc1cccc(NC(=O)[C@@H]2CCC(=O)N2C2OC(=O)c3ccccc32)c1 (some centres not stated),inactive
18,CC(=O)c1ccc(Sc2ccccc2)c([N+](=O)[O-])c1,"inconclusive: 50.1 µM [inhibitor, partial curve]"
19,[O-]/C(=C(\C(=S)NCc1ccco1)[n+]1ccccc1)c1ccccc1Br,inactive
20,O=C(c1ccccc1NS(=O)(=O)c1ccc(F)cc1F)N1CCCCC1,inactive
21,CCOC(=O)C1CCCN(C(=O)CSc2nc(C)cc(C)n2)C1 (configuration not stated),"inconclusive: 39.8 µM [inhibitor, single point]"
22,CN(C)S(=O)(=O)c1cccc(NC(=O)c2cc(=O)[nH]c(=O)[nH]2)c1,"inconclusive: 56.2 µM [inhibitor, partial curve, poor fit]"
23,O=C(NNS(=O)(=O)c1ccc(F)cc1)c1cnccn1,"inconclusive: 3.16 µM [inhibitor, full curve, poor fit]"
